Inconclusive results, whose numbers are uncertain, are shown with a selection of clear calls. The source made the active and inactive calls.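 The calls were made as follows: active = cell viability at or below a set limit in both duplicate runs, the limit being the all-compound median minus 4 SD (cut at about 23% in these data, passing the limit was not always enough); inconclusive = no clear call, values can overlap the other calls; inactive = the rest.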
Test: viability of HCT116 without oncogenic beta-catenin – human colon tumor cells, pilot screen (AID 823);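 also: 0% = wells killed by 20 µM Hyamine and 100% = untreated DMSO cell wells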
Conditions: HCT116 beta-catenin knockout viability, CellTiter-Glo, 60 h; at 10 µM; active compounds read low

Compound | viability
CCc1cc(=O)oc2cc(OCC(=O)OC)c(Cl)cc12 | inconclusive: 97.2%
COCCNC(=O)C1c2ccccc2C(=O)N(CCOC)C1c1ccc(F)cc1 (stereo not given) | inconclusive: 94.7%
CCc1ccccc1N1CC23C=CC(O2)C(C(=O)OC)C3C1=O (stereo not given) | inactive: 92.7%
Cc1cc(NC(=O)CS(=O)(=O)c2cn(Cc3ccccc3Cl)c3ccccc23)no1 | inconclusive: 42%
COc1ccc(Oc2coc3c(CN(C)C)c(O)ccc3c2=O)cc1 | inconclusive: 105%
O=C(C1CC1)N1CCc2cc(Br)cc(S(=O)(=O)N3CCCCCC3)c21 | inconclusive: 72.6%
C=C1c2ccc(C)cc2NC(=O)N1c1ccccc1 | inconclusive: 97.7%
Cc1nc2nc(SCC(=O)N3CCOCC3)nn2c(C)c1Cc1ccccc1 | inconclusive: 95.4%
CCn1cc(C(=O)NCCCN2CC(C)CC(C)C2)c2cc(OC)c(OC)cc2c1=O (stereo not given) | inconclusive: 84.4%
COc1cccc(OCCOc2cccc(/C=N/n3cnnc3)c2)c1 | inconclusive: 83.9%
CC(C)(Oc1ccc(Cl)cc1)C(=O)Nc1ncccn1 | inconclusive: 99.1%
c1ccc(-c2noc(-c3cccnc3)n2)cc1 | inconclusive: 100%
CC1Cc2ccccc2N1Cc1nc2scc(-c3cccs3)c2c(=O)[nH]1 (stereo not given) | inconclusive: 107%
Oc1ccc(C=NCC2COc3ccccc3O2)cc1 (stereo not given) | inconclusive: 72.4%
Cc1cccc(N(CC(=O)Nc2c(C)n(C)n(-c3ccccc3)c2=O)S(C)(=O)=O)c1 | inconclusive: 107%

Reference: PubChem BioAssay
